# From PubChem BioAssay AID504832 (National Center for Advancing Translational Sciences (NCATS), 2011)
# Screen size: about 310,000 compounds; about 18,000 (5.8%) were called active. This list was built around the results that the source calls inconclusive (neither active nor inactive); the mix of calls is not that of the screen. The call rests on the fitted dose curve; in most records, active means well fitted inhibition curve with a large enough effect; inconclusive means small, poorly fitted or top-dose-only effect, or another doubt; inactive means no such curve, though single readings can be large or run the other way. Potencies of inconclusive entries are left out as doubtful fits.
# Test: Primary qHTS for delayed death inhibitors of the malarial parasite plastid, 48 hour incubation
# Conditions: P. falciparum luciferase growth in erythrocytes; series mostly up to 28.7 µM; activity change, negative = inhibition: at the top concentration
# Method in brief: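 Growth was read as firefly luciferase luminescence after a 48 h, 37 C, 5% CO2 exposure of compounds to reporter-bearing P. falciparum cultures (0.1% parasitemia, 2% hematocrit final) in Albumax-supplemented RPMI 1640.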
# On the % scale 0 is the no-effect control and ±100 the full control effect; potency means the concentration at half of the fitted maximal effect; tags describe the fitted curve by direction and shape.
Compound,"activity change, negative = inhibition",Potency
Cc1ccc(Cn2nc(C(=O)Nc3ccc(Br)cc3)cc2C)cc1,inactive: -17% [at 0.00184 µM],–
COc1ccc(S(=O)(=O)N2CCC(O)(c3ccc(Cl)cc3)CC2)cc1,inactive: -19.6%,–
COc1cc(/C=N/NC(=O)c2cc(-c3cccn3C)n[nH]2)cc(OC)c1OC,–,active: 6.57 µM
COc1cccc(N2CCN(c3cnc4ccccc4n3)CC2)c1,inactive: 185%,–
COc1ccccc1N1CCN(C2CCCN(Cc3ccccc3OCCO)C2)CC1 (centres undefined),–,"inconclusive [inhibitor, full curve, poor fit]"
Cc1ccccc1C1c2[nH]c3ccccc3c2CCN1C(=O)c1ccc(=O)n(C)n1 (centres undefined),–,"inconclusive [inhibitor, partial curve, poor fit]"
CCCCOc1ccc(-c2ncc(C(=O)OCC)c(N)n2)cc1,inactive: 158%,–
COc1ccc(OCCSc2nnc(CCNC(=O)c3ccc(Cl)c(Cl)c3)n2C)cc1,–,"inconclusive [inhibitor, partial curve, poor fit]"
Cc1c(NS(=O)(=O)c2cc(C(=O)NCc3cccnc3)cc(Cl)c2Cl)c(=O)n(-c2ccccc2)n1C,–,active: 11.7 µM
Cc1ccc(C)c(NC(=O)CN(C)C(=O)c2ccc(S(=O)(=O)N3CCCCCC3)cc2)c1,–,"inconclusive [inhibitor, single point]"
O=C(/C=N/O)Nc1cccnc1,inactive: -5.34%,–
Cc1ccc(C)c(OCCn2c(=O)c3c(ncn3C3CCCC3)n(Cc3ccccc3)c2=O)c1,–,active: 11.7 µM
O=C1CC2(CCCCC2)Oc2ccc(OCC(=O)N3CCOCC3)cc21,–,"inconclusive [inhibitor, single point]"
COc1ccccc1NS(=O)(=O)c1cccc(C(=O)N/N=C/c2cn(-c3ccccc3)nc2-c2ccccc2)c1,–,active: 2.08 µM
O=C(NCCNC(=O)c1ccccn1)c1ccc(-c2ccccc2)cc1,–,"inconclusive [inhibitor, single point]"
O=C(CN1CCN(S(=O)(=O)c2ccc(F)cc2)CC1)Nc1cccc(C(F)(F)F)c1,–,"inconclusive [inhibitor, partial curve, poor fit]"
CCOc1cccc(Nc2cc3n(c(=O)n2)CCc2cc(OC)c(OC)cc2-3)c1,–,"inconclusive [inhibitor, partial curve, poor fit]"
Clc1ccc(/C=C/c2ncc[nH]2)c(Cl)c1,–,"inconclusive [inhibitor, single point]"
Cc1ccc(NC(=O)CN(C)C(=O)C(Sc2ccccc2)c2ccccc2)cc1 (centres undefined),–,"inconclusive [inhibitor, partial curve]"
CCOc1ccc(C(c2c(NC(=O)c3ccccc3)sc(C)c2C)N2CCN(C)CC2)cc1 (centres undefined),–,"inconclusive [inhibitor, single point]"
COc1cc(C2C(C#N)=C(N)Oc3cc4c(cc32)OCO4)cc(OC)c1OC (centres undefined),–,"inconclusive [inhibitor, partial curve]"
COc1ccc(CC(=O)NNC(=O)c2ccco2)cc1,inactive: 1.73%,–

Compound,"activity change, negative = inhibition",Potency
Cn1c(CN2CCCCC2)nc2cc(NC(=O)c3cccs3)ccc21,–,active: 10.4 µM
COc1ccc(CN(C)C(=O)CNC(=O)c2ccc(C)cc2)cc1,–,"inconclusive [inhibitor, full curve, poor fit]"
Cc1cccc(NC(=O)CSc2nccn2Cc2ccco2)c1,inactive: 67.4%,–
Cc1ccc2cc(CCNC(=O)c3ccc4c(c3)OCO4)c(=O)[nH]c2c1,–,"inconclusive [inhibitor, single point]"
CCCCCCCC(=O)N/N=C/c1ccc([N+](=O)[O-])o1,–,"inconclusive [inhibitor, single point]"
COc1cccc(/C=C(\CC(=O)O)c2nc3ccccc3s2)c1,inactive: 6.23%,–
CCCCCC(=O)Nc1nc(C)c(-c2csc(Nc3ccc(Cl)cc3)n2)s1,–,active: 14.7 µM
CCOc1ccc2nc(NC(=O)CSc3nc4ccccc4c(=O)n3Cc3ccco3)sc2c1,–,"inconclusive [inhibitor, single point]"
COc1ccc(-c2cc(=O)oc3c(C)c(OC(C)C(=O)Nc4ccc(CN5CCOCC5)cc4)ccc23)cc1 (centres undefined),–,active: 7.38 µM
O=C(/C=C/c1ccc([N+](=O)[O-])s1)N1CCCCC1,–,"inconclusive [inhibitor, single point]"
Cc1cccc(NC(=O)C[n+]2cccc(C)c2)c1,–,"inconclusive [inhibitor, partial curve, poor fit]"
O=C(C1=C[C@H](c2ccccc2)C[C@H](OCc2ccc(CO)cc2)O1)N1CCN(Cc2ccc3c(c2)OCO3)CC1,–,"inconclusive [inhibitor, partial curve]"
Cc1ccc(C2=NN(C(=O)c3cccs3)C(c3ccccc3O)C2)cc1 (centres undefined),–,"inconclusive [inhibitor, single point]"
CCCCCn1c(CN2CCCCC2C)nc2c1c(=O)n(C)c(=O)n2C (centres undefined),–,"inconclusive [inhibitor, single point]"
O=C(NNc1cc(N2CCOCC2)nc(N2CCOCC2)n1)C12CC3CC(CC(C3)C1)C2,–,"inconclusive [inhibitor, partial curve, poor fit]"
CC1=CC(C)(C)Nc2cc(C)c(C)cc21,–,"inconclusive [inhibitor, single point]"
CC(C)=CCC/C(C)=C/CCC(C)NCCN1CCNCC1 (centres undefined),–,active: 13.1 µM
COc1ccc(C(C(=O)Nc2ccc(C(C)C)cc2)N(C)C(=O)c2ccc(=O)[nH]c2)cc1 (centres undefined),–,"inconclusive [inhibitor, partial curve]"
CCCOCC(O)CC(Cc1ccccc1)C(=O)NN (centres undefined),inactive: 1.3%,–
CCC(=NCCc1c(C)[nH]c2ccc(C)cc12)C1=C(O)CC(c2ccccc2)CC1=O (centres undefined),–,"inconclusive [inhibitor, partial curve]"
COc1ccc(OC)c(Nc2ncnc3c2cnn3-c2cccc(C)c2)c1,inactive: 8.4%,–
CC/C(Cc1ccccc1)=N\NC(=O)c1cc([N+](=O)[O-])cc([N+](=O)[O-])c1,inactive: -3.14%,–
